These results are taken from patent US8409577.

For test [1], the target named is T1, CD20 (human) (UniProt P11836).
T1 sequence (looked up): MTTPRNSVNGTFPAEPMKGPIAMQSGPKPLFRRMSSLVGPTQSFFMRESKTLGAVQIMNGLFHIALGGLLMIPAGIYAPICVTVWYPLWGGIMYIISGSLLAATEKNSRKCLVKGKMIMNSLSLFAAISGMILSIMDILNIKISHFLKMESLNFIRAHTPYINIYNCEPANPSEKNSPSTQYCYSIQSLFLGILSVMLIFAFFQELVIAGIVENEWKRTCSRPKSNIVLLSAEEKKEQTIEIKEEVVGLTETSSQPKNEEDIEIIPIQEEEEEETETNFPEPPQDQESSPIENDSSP
Put plainly: flow cytometry, staining of WIL2S cells (CD20); protein made in 200 uM castanospermine. A general note: Flow cytometry measures light scatter and fluorescence of single cells or particles in a stream.

Test [2] concerns the target T1, CD20 (human). Nature of the test: flow cytometry, Ramos cells loaded at 25 µg/ml, washed, kept at 37° C. or on ice.
Test [3] addresses T1, CD20 (human). Nature of the test: flow cytometry, staining of WIL2S cells (CD20); protein made in 10 uM kifunensine.

B1: S0129 CS200 (protein, from a related filing)
chain: EIVLTQSPATLSLSPGERATLSCRASSSVSYIVWYQQKPGQAPRLLIYAPSNLASGIPARFSGSGSGTDFTLTISSLEPEDFAVYYCQQWSFNPPTFGQGTKVEIKDGGGSGGGGSGGGGSSQVQLVQSGAESKKPGASVKVSCKASGYTFTSYNMHWVRQAPGQGLEWMGAIYPGNGDTSYNQKFKGRVTMTRDTSTSTVYMELSSLRSEDTAVYYCARSYYSNSYWYFDLWGRGTLVTVSSS[in this place human IgG1 Fc with changes]GCPPCPNSQVQLVQSGAESKKPGASVKVSCKASGYTFTSYNMHWVRQAPGQGLEWMGAIYPGNGDTSYNQKFKGRVTMTRDTSTSTVYMELSSLRSEDTAVYYCARSYYSNSYWYFDLWGRGTLVTVSSGGGGSGGGGSGGGGSASEIVLTQSPATLSLSPGERATLSCRASSSVSYIVWYQQKPGQAPRLLIYAPSNLASGIPARFSGSGSGTDFTLTISSLEPEDFAVYYCQQWSFNPPTFGQGTKVEIKD
For the molecule B1, the EC50 (read off the curve) – broadly, the concentration needed to bring the measured effect to its halfway point – with CD20 (human) [1] came to 10 nM.

B2: humanized CD20×CD20 (2Lm20-4×2Lm20-4) scorpion (protein, from a related filing)
chain: EIVLTQSPATLSLSPGERATLSCRASSSVSYIVWYQQKPGQAPRLLIYAPSNLASGIPARFSGSGSGTDFTLTISSLEPEDFAVYYCQQWSFNPPTFGQGTKVEIKDGGGSGGGGSGGGGSSQVQLVQSGAESKKPGASVKVSCKASGYTFTSYNMHWVRQAPGQGLEWMGAIYPGNGDTSYNQKFKGRVTMTRDTSTSTVYMELSSLRSEDTAVYYCARSYYSNSYWYFDLWGRGTLVTVSSS[in this place human IgG1 Fc with changes]GCPPCPNSQVQLVQSGAESKKPGASVKVSCKASGYTFTSYNMHWVRQAPGQGLEWMGAIYPGNGDTSYNQKFKGRVTMTRDTSTSTVYMELSSLRSEDTAVYYCARSYYSNSYWYFDLWGRGTLVTVSSGGGGSGGGGSGGGGSASEIVLTQSPATLSLSPGERATLSCRASSSVSYIVWYQQKPGQAPRLLIYAPSNLASGIPARFSGSGSGTDFTLTISSLEPEDFAVYYCQQWSFNPPTFGQGTKVEIKD
With B2, the persistence of binding on the cell surface in the test with CD20 (human) [2] is greater than 6 h.

B3: S0129 KF 10 (protein, from a related filing)
chain: EIVLTQSPATLSLSPGERATLSCRASSSVSYIVWYQQKPGQAPRLLIYAPSNLASGIPARFSGSGSGTDFTLTISSLEPEDFAVYYCQQWSFNPPTFGQGTKVEIKDGGGSGGGGSGGGGSSQVQLVQSGAESKKPGASVKVSCKASGYTFTSYNMHWVRQAPGQGLEWMGAIYPGNGDTSYNQKFKGRVTMTRDTSTSTVYMELSSLRSEDTAVYYCARSYYSNSYWYFDLWGRGTLVTVSSS[in this place human IgG1 Fc with changes]GCPPCPNSQVQLVQSGAESKKPGASVKVSCKASGYTFTSYNMHWVRQAPGQGLEWMGAIYPGNGDTSYNQKFKGRVTMTRDTSTSTVYMELSSLRSEDTAVYYCARSYYSNSYWYFDLWGRGTLVTVSSGGGGSGGGGSGGGGSASEIVLTQSPATLSLSPGERATLSCRASSSVSYIVWYQQKPGQAPRLLIYAPSNLASGIPARFSGSGSGTDFTLTISSLEPEDFAVYYCQQWSFNPPTFGQGTKVEIKD
As to B3, the EC50 (read off the curve) with CD20 (human) [3] was determined as 10 nM.

B4: 2Lm20-4 SMIP (Fc fusion, from a related filing)
chain: EIVLTQSPATLSLSPGERATLSCRASSSVSYIVWYQQKPGQAPRLLIYAPSNLASGIPARFSGSGSGTDFTLTISSLEPEDFAVYYCQQWSFNPPTFGQGTKVEIKDGGGSGGGGSGGGGSSQVQLVQSGAESKKPGASVKVSCKASGYTFTSYNMHWVRQAPGQGLEWMGAIYPGNGDTSYNQKFKGRVTMTRDTSTSTVYMELSSLRSEDTAVYYCARSYYSNSYWYFDLWGRGTLVTVSSS[in this place human IgG1 Fc with changes]
In the test with CD20 (human) [2], B4 had a persistence of binding on the cell surface greater than 6 h.
